Data published in PubChem BioAssay AID1347417 (National Center for Advancing Translational Sciences (NCATS), 2020).
In all, about 120,000 compounds went through this assay and about 5,300 (4.4%) were called active. This list was built around the results that the source calls inconclusive (neither active nor inactive); the mix of calls is not that of the screen. Calls follow the shape of the dose curve; as a rule, active = well fitted inhibition curve with a large enough effect; inconclusive = small, poorly fitted or top-dose-only effect; inactive = no such curve, though single readings can be large or run the other way. Where the call is inconclusive, the potency comes from a doubtful curve fit.

Assay: qHTS Primary assay for Inhibitors of Plasmodium falciparum Dd2 growth in vitro; also: nearly all actives have a fitted effect of over 65% in size;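 as to activity, negative = inhibition: plate controls were DMSO vehicle for no effect and reference drug for full effect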
Settings: P. falciparum Dd2 growth, SYBR Green, 72 h; activity, negative = inhibition: at 28.9 µM (top of the series) unless noted; series mostly up to 28.9 µM
Outline: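 Infected erythrocytes (Dd2, 0.3% parasitemia, 2.5% hematocrit final) are added to compound in RPMI-1640/Albumax II medium, grown 72 h at 37C in low oxygen, then lysed with saponin/Triton-X containing SYBR Green and read by fluorescence.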
Potency is read from the fitted curve at half-maximal effect; tags tell the direction and shape of the fitted curve.

**Q.** Which Potency does the source give for `O=C1CCCCCN1CCC(=O)N1CCCC(Nc2ccc(F)cc2)C1` (stereo not given) here?
**A.** inactive

**Q.** With `COc1ncc(-c2cccc(COc3ccc4c(cnn4CC[S+](C)(=O)[O-])c3)c2)cn1` as the compound, how does the Potency read?
**A.** inconclusive: 20 µM [inhibitor, single point]

**Q.** For `Cc1cccc(OCC(=O)N2CCCC(c3noc(COc4ccccc4)n3)C2)c1` (stereo not given), which Potency is on record?
**A.** inconclusive: 8.91 µM [inhibitor, partial curve, poor fit]

**Q.** With `Cc1nnc(N2CCC(C(=O)N3CCCCC3)CC2)c2nn(-c3ccc(Cl)cc3)c(C)c12` as the compound, how does the Potency read?
**A.** active: 10 µM

**Q.** Which Potency does the source give for `O=C(NCc1ccc(F)cc1F)c1ccc(N2CC3CC(C2)[C@H]2CCCC(=O)N2C3)nc1` (stereo not given in full) here?
**A.** inconclusive: 3.98 µM [inhibitor, single point]

**Q.** For `O=C(CC1CCCN(c2cn[nH]c(=O)c2)C1)N1CCN(c2cccc(Cl)c2)CC1` (stereo not given), which Potency is on record?
**A.** inconclusive: 3.16 µM [inhibitor, single point]

**Q.** With `CC(=O)c1cccc(NC(=O)c2nc(-c3ccccc3)n(-c3cccc(Cl)c3)n2)c1` as the compound, how does the Potency read?
**A.** inconclusive: 8.91 µM [inhibitor, partial curve]

**Q.** With `COc1ccc(-c2cn(C)c(=O)n3cc(COc4ccccc4)nc23)c(C)c1` as the compound, how does the Potency read?
**A.** inactive

**Q.** For `CCOCCn1cnc(-c2ccccc2)c1-c1cccc(C#N)c1`, which Potency is on record?
**A.** inactive

**Q.** With `O=C1c2c(nc(COc3ccc(F)cc3)n2Cc2ccccc2)NCCN1CCOc1ccccc1` as the compound, how does the Potency read?
**A.** active: 5.62 µM

**Q.** With `CCc1ccc(NC(=O)C(=O)NCC(c2cccnc2)N2CCN(c3ccc(F)cc3)CC2)cc1` (stereo not given) as the compound, how does the Potency read?
**A.** inconclusive: 17.8 µM [inhibitor, single point]

**Q.** With `CC1=C[C@@H](CN2CCOCC2)[C@H](C(C)C)C[C@H]1Cc1nnc(-c2ccc([N+](=O)[O-])cc2)o1` as the compound, how does the Potency read?
**A.** inconclusive: 0.0631 µM [inhibitor, full curve, poor fit]

**Q.** Which Potency does the source give for `Cc1noc(C)c1[S+](=O)([O-])N1CCn2c(nn(-c3cccc(Cl)c3)c2=O)C1` here?
**A.** inconclusive: 17.8 µM [inhibitor, single point]

**Q.** With `COC1CCOC2(CCN(C(=O)CCCc3ccccc3)CC2)C1` (stereo not given) as the compound, how does the Potency read?
**A.** inactive

**Q.** Which Potency does the source give for `CC(C)(C)c1ccc(C(=O)Nc2ccc3c(c2)CCCN3C(=O)c2cccs2)cc1` here?
**A.** inconclusive: 10 µM [inhibitor, single point]

**Q.** With `CN1c2cc(C(=O)Nc3ccc(Cl)c(F)c3)ccc2C(=O)N2CCCCCC21` (stereo not given) as the compound, how does the Potency read?
**A.** inconclusive: 3.55 µM [inhibitor, partial curve, poor fit]

**Q.** With `CCN(CC)C[C@H]1CN2CC[C@H]1C[C@@H]2CNC(=O)Nc1cccc(SC)c1` as the compound, how does the Potency read?
**A.** inconclusive: 12.6 µM [inhibitor, single point]

**Q.** With `O=C([C@H]1C[C@H](Oc2ccccc2)CN1C(=O)c1ccc(F)cc1)N1CCOCC1` as the compound, how does the Potency read?
**A.** inconclusive: 10 µM [inhibitor, partial curve]

**Q.** For `CCCCCNC(=O)Cc1csc2nc(C)c(-c3cc(C)n(-c4ccccc4F)n3)c(=O)n12`, which Potency is on record?
**A.** inactive

**Q.** With `Cc1ccc(C2NC(=O)N(CC(=O)Nc3ccc4c(c3)OCO4)C3=C2C(=O)OC3)cc1` (stereo not given) as the compound, how does the Potency read?
**A.** inactive

**Q.** With `COc1ccc(-c2noc(N(c3nc(-c4ccc(OC)c(OC)c4)no3)c3ccccc3OC)n2)cc1OC` as the compound, how does the Potency read?
**A.** inconclusive: 1.26 µM [inhibitor, partial curve, poor fit]

**Q.** Which Potency does the source give for `Cc1ccccc1N(C)C1CN(C(=O)c2ccccn2)C1` here?
**A.** inconclusive: 11.2 µM [inhibitor, partial curve]

**Q.** With `CCOc1ccccc1Nc1sc(C(=O)c2ccccc2)c(N)c1C(=O)Nc1ccccc1` as the compound, how does the Potency read?
**A.** inactive

**Q.** For `CCc1ccc(NC(=O)Cn2c(=O)n(CCCCC(=O)NCc3ccc4c(c3)OCO4)c(=O)c3ccccc32)cc1`, which Potency is on record?
**A.** inactive

**Q.** Which Potency does the source give for `COc1ccccc1-c1ccnc(N[C@H]2CO[C@H]3[C@@H]2OC[C@@H]3NC(=O)c2ccc(C(F)(F)F)cc2)n1` here?
**A.** inconclusive: 2.24 µM [inhibitor, single point]

**Q.** With `CN(C(=O)Cc1ccccn1)C1CCc2ccccc21` (stereo not given) as the compound, how does the Potency read?
**A.** inconclusive: 31.6 µM [inhibitor, single point]

**Q.** With `O=C1[C@H]2CN(Cc3ccc(F)c(Cl)c3)C[C@H]2C(=O)N1CCc1ccccc1` as the compound, how does the Potency read?
**A.** inconclusive: 14.1 µM [inhibitor, partial curve, poor fit]

**Q.** Which Potency does the source give for `Cc1ccc(C(=O)CSc2nc(-c3ccccc3)nc3c2CCCC3)c(C)c1` here?
**A.** inconclusive: 10 µM [inhibitor, single point]

**Q.** Which Potency does the source give for `CCc1nc2c(c(-c3ccc(Cl)cc3)n1)CCN([S+](=O)([O-])c1cccs1)CC2` here?
**A.** active: 12.6 µM

**Q.** For `COC[C@H]1CCCN1Cc1nc(C2(O)CCN(Cc3ccccc3O)CC2)cs1`, which Potency is on record?
**A.** inconclusive: 1.78 µM [inhibitor, partial curve, poor fit]

**Q.** Which Potency does the source give for `COCCNC(=O)CSc1nc(-c2cc(OC)c(OC)c(OC)c2)[nH]c1-c1ccc(Cl)cc1` here?
**A.** inconclusive: 1 µM [inhibitor, full curve, poor fit]

**Q.** For `COCc1nc(C2CCCN(C(=O)Nc3cccc(F)c3C)C2)no1` (stereo not given), which Potency is on record?
**A.** inconclusive: 7.08 µM [inhibitor, partial curve, poor fit]

**Q.** Which Potency does the source give for `COc1ccc(S(=O)(=O)N2CCCN(C)c3ccccc32)cc1` here?
**A.** inactive

**Q.** Which Potency does the source give for `CN1c2cc(C(=O)NCc3ccc(F)cc3Cl)ccc2C(=O)N2CCCCC21` (stereo not given) here?
**A.** inconclusive: 8.91 µM [inhibitor, single point]

**Q.** Which Potency does the source give for `CNC(=O)C1(N2CCC[C@H]2C(=O)NCc2cccnc2)CCCCC1` here?
**A.** inactive

**Q.** For `CCC1CN(C(=O)N2CCC(C(=O)NCCc3ccccc3Cl)CC2)c2cc(C)ccc2O1` (stereo not given), which Potency is on record?
**A.** inconclusive: 12.6 µM [inhibitor, single point]

**Q.** Which Potency does the source give for `CCCC(O)c1nc2ccccc2n1Cc1ccccc1OC` (stereo not given) here?
**A.** inconclusive: 7.94 µM [inhibitor, partial curve, poor fit]

**Q.** For `CN1C(=O)CO[C@H](c2ccc(NC(=O)C3CCCC3)cc2)[C@H]1CO`, which Potency is on record?
**A.** inconclusive: 0.631 µM [inhibitor, partial curve, poor fit]

**Q.** With `COc1ccc(C(=O)N[C@H]2CC[C@]3(C)CCC([C@H](C)C(=O)N(C)Cc4cccnc4)[C@H](O)[C@H]3[C@@H]2C)cc1` (stereo not given in full) as the compound, how does the Potency read?
**A.** inactive

**Q.** Which Potency does the source give for `Cc1ccc(CN(C(=O)c2ccccc2)c2ccccn2)o1` here?
**A.** inconclusive: 17.8 µM [inhibitor, single point]

**Q.** Which Potency does the source give for `COCCCNC(=O)C(NC(=O)c1ccccc1)C1CCN(C(=O)C2CC2)CC1` (stereo not given) here?
**A.** inactive

**Q.** For `CC1CCCN1c1ccc(C(=O)N2CCC(Oc3cccnc3)CC2)cn1` (stereo not given), which Potency is on record?
**A.** inconclusive: 11.2 µM [inhibitor, single point]

**Q.** With `CCn1nc(CC(C)C)cc1C(=O)NCC1CCCN(Cc2ccco2)C1` (stereo not given) as the compound, how does the Potency read?
**A.** inconclusive: 5.62 µM [inhibitor, partial curve, poor fit]

**Q.** Which Potency does the source give for `CC(C)Cc1cc(CC2(NC3CCCCC3)COC2)no1` here?
**A.** inconclusive: 39.8 µM [inhibitor, partial curve, poor fit]

**Q.** Which Potency does the source give for `Cc1ccc(Cl)cc1NC(=O)Nc1nnc(N(C)Cc2ccccc2)s1` here?
**A.** inconclusive: 17.8 µM [inhibitor, partial curve, poor fit]

**Q.** For `O=C(Cc1ccccc1)N1CCC[C@H]1c1nc(-c2ccccc2)no1`, which Potency is on record?
**A.** active: 10 µM

**Q.** For `CCCCn1cc(S(=O)(=O)c2ccc(OC)cc2)c(=O)c2cc(CC)ccc21`, which Potency is on record?
**A.** inactive

**Q.** Which Potency does the source give for `Cc1ccccc1CN1CC[C@@H]2CN(S(C)(=O)=O)[C@@H]2C1` here?
**A.** inactive

**Q.** For `O=C1OCC2=C1C(c1ccccc1)NC(=O)N2CC(=O)N1CCCCC1` (stereo not given), which Potency is on record?
**A.** inactive

**Q.** Which Potency does the source give for `Cc1ccc(C(=O)N2CCN(c3nnc4c(Cl)cccn34)CC2)cc1` here?
**A.** inconclusive: 2.82 µM [inhibitor, single point]

**Q.** For `Cc1cccc(N2CCN(C(=O)CN3C(=O)COc4ccc(S(=O)(=O)N5CCCCCC5)cc43)CC2)c1C`, which Potency is on record?
**A.** inconclusive: 5.62 µM [inhibitor, partial curve, poor fit]

**Q.** Which Potency does the source give for `CSc1ncc(C(=O)N2CCN(c3cc(C)ccc3C)CC2)c(C)n1` here?
**A.** inactive

**Q.** For `CC(C)c1nncn1C1CCN(S(=O)(=O)c2ccc(F)cc2)CC1`, which Potency is on record?
**A.** inactive

**Q.** With `C[C@H](C(=O)N1CCCC1)C1CC[C@@]2(C)Cc3sc(NC(=O)C4CC4)nc3[C@@H](C)[C@@H]2[C@H]1O` (stereo not given in full) as the compound, how does the Potency read?
**A.** inconclusive: 1.12 µM [inhibitor, full curve, poor fit]

**Q.** For `COc1ccc(-c2cc3nc4c(c(=O)n3[nH]2)CN(C(=O)c2ccncc2)CC4)cc1`, which Potency is on record?
**A.** inconclusive: 0.199 µM [inhibitor, partial curve, poor fit]

**Q.** With `CCOc1ccccc1C(=O)NC1CCN(c2cc(-c3ccc(OC)cc3)[nH]n2)C1` (stereo not given) as the compound, how does the Potency read?
**A.** inconclusive: 1.58 µM [inhibitor, single point]

**Q.** For `CCCCOc1cccc(C(=O)Nc2cccc(-c3nc4ncccc4o3)c2C)c1`, which Potency is on record?
**A.** inconclusive: 10 µM [inhibitor, single point]

**Q.** For `CCC(C(=O)NCCn1ccn2nc(-c3ccc(F)cc3)cc2c1=O)c1ccccc1` (stereo not given), which Potency is on record?
**A.** inactive

**Q.** Which Potency does the source give for `CCN1CCCC2(Cc3ccccc3CN(C(C)=O)C2)C1` (stereo not given) here?
**A.** inconclusive: 11.2 µM [inhibitor, partial curve, poor fit]

**Q.** With `Cc1cccc(C(=O)NC2CCN(c3cn[nH]c(=O)c3)CC2)c1` as the compound, how does the Potency read?
**A.** inactive

**Q.** Which Potency does the source give for `COc1ccc(-c2ccc3nnc(CNC(=O)c4cccc(OC)c4)n3n2)cc1` here?
**A.** inactive

**Q.** For `COc1ccc(C(=O)N2CCc3ccc(C(=O)NCc4cccc(C)c4)cc32)cc1`, which Potency is on record?
**A.** inconclusive: 2.51 µM [inhibitor, single point]

**Q.** With `O=C1NC(C(=O)NCc2cccc(C(F)(F)F)c2)Cn2cccc21` (stereo not given) as the compound, how does the Potency read?
**A.** inactive

**Q.** For `COc1cc2c(cc1OC)C(CNC(=O)CC(C)C)N(C(=O)Nc1cccc(C)c1)CC2` (stereo not given), which Potency is on record?
**A.** inconclusive: 0.501 µM [inhibitor, full curve, poor fit]

**Q.** Which activity, negative = inhibition does the source give for `CC(=O)Nc1ccc(CN2CCCC23Cc2ccccc2CN(C(=O)CCC(=O)O)C3)cc1` (stereo not given) here?
**A.** inconclusive: -77.3% [inhibitor]
